Results are given in words; binding and its absence hold for the method and conditions named. For some of these results: In cells and extracts the contact can be indirect. Some results given as binding are weak or reduced against the parent protein; the word gives no strength. Where a sequence is shown, tags or fusion partners need not be part of it.
B1: AtBG_PPAP (a β-1,3-glucanase) fused to CFP (enzyme, UniProt Q9FHX5 27-401)
chain: IGINYGQVANNLPPPKNVIPLLKSVGATKVKLYDADPQALRAFAGSGFELTVALGNEYLAQMSDPIKAQGWVKENVQAYLPNTKIVAIVVGNEVLTSNQSALTAALFPAMQSIHGALVDCGLNKQIFVTTAHSLAILDVSYPPSATSFRRDLLGSLTPILDFHVKTGSPILINAYPFFAYEENPKHVSLDFVLFQPNQGFTDPGSNFHYDNMLFAQVDAVYHALDAVGISYKKVPIVVSETGWPSNGDPQEVGATCDNARKYNGNLIKMMMSKKMRTPIRPECDLTIFVFALFNENMKPGPTSERNYGLFNPDGTPVYSLGIKTSSTHSSGSGSSNSTGGSSSGGGGNTGGSSSGGGIYQPVTGNPSPDYMSISS
B2: PLASMODESMATA-LOCALIZED PROTEIN 5 (PDLP5) fused to CFP (protein, UniProt Q8GUJ2 26-299)
chain: SPTDNYIYAVCSPAKFSPSSGYETNLNSLLSSFVTSTAQTRYANFTVPTGKPEPTVTVYGIYQCRGDLDPTACSTCVSSAVAQVGALCSNSYSGFLQMENCLIRYDNKSFLGVQDKTLILNKCGQPMEFNDQDALTKASDVIGSLGTGDGSYRTGGNGNVQGVAQCSGDLSTSQCQDCLSDAIGRLKSDCGMAQGGYVYLSKCYARFSVGGSHARQTPGPNFGHEGEKGNKDDNGVGKTLAIIIGIVTLIILLVVFLAFVGKCCRKLQDEKWCK
B3: AtBG_PPAP (a β-1,3-glucanase), prey of the MYTH (enzyme, UniProt Q9FHX5 27-401)
chain: B1 chain
B4: PLASMODESMATA-LOCALIZED PROTEIN 5 (PDLP5), prey of the MYTH (protein, UniProt Q8GUJ2 26-299)
chain: B2 chain
B5: stomatal cytokinesis-defective 1 (SCD1), prey of the MYTH (protein, UniProt Q8RXA7 1-1187)
chain: MGRIFEYFVVCGLGPEMRTVDGDLGFHGMQTFYLPALLDQFPPTDQSPYPAPPPQLPTCVLPAGVEFHSSGFVSSDPASFPRSYPIVLTEGDGSKIFVSCIAFRDRVCEDIIEAYRLPPNTYADKCICLVSHAPNFRVLRNSLEEIFVLCFSSEGSCKPLWDIIAYMVSNVPLPTPGKDRVLFAVENCLLSVEAPPEDSLPQADISLQPLVQCLDVDNLIKLFTSVLVERRILIRSNKYSLLTLVSESICHLIYPFRWLQVYIPLLFFSGVDYIDAPTPYMMGLHSDVDTSNLAMDGVVVVDLDINQITTSEEIPQIPEPEFSTLRNDILKLLHPNVVAIDQLKGFGNSVEQCPKSLSKPWGEDHDLQLRVIFLKCFASILGGYRNFIENKVFSTDAFLKRRSRSTNQPPEPMLVQFLGSFAFLDYLERRLSSDEKSTNLLEKLQDAVGRGQDAMSILPKSSMEPEIITIAEPEVEESATRYTYDRFPASVRSEEQEEKRKQILAAASGALESNGRHPPSSPPGKNTKEDNFSSMERAAERERMVLDIQVKLQGLWLRLLKLGSDEDPLSSFEYGTILALIESDAEGIGGSGFIECIREHLYSGWHGQLSEEQFIAVKELLKMAVGRAASRSDLSTVRDALEVSAEMFKKDANNVSDYVQRHLISIPIWEELRFWEGYFEYLMEQPANESVNYATLVTARLIIVASHMAGLGLPDTEAWNMIETIAEKQKLGYKLLIKLRGFLSHVQQLRVGYWGASSFKQQAISAGLPSPRPKDVSVSDETQQPSEASGRSWVQSMFSRDTASRANSFSRVRKWVSDNASSDITAAAQKKIQTNVRVLKGHGGAVTALHSVTRREVCDLVGDREDAGFFISGSTDCLVKIWDPSLRGSELRATLKGHTGTVRAISSDRGKIVSGSDDLSVIVWDKQTTQLLEELKGHDSQVSCVKMLSGERVLTAAHDGTVKMWDVRTDMCVATVGRCSSAILSLEYDDSTGILAAAGRDTVANIWDIRSGKQMHKLKGHTKWIRSIRMVEDTLITGSDDWTARVWSVSRGSCDAVLACHAGPVQSVEYSPFDKGIITGSADGLLRFWENDEGGIKCVKNITLHSSSILSINAGENWLGIGAADNSMSLFHRPSNAGTKVSGWQLYRVPQRTAAVVRCVASDLERKRICSGGRNGVLRLWDATINI
B6: AtBG_PPAP (a β-1,3-glucanase) fused to YN (enzyme, UniProt Q9FHX5 27-401)
chain: B1 chain
B7: PLASMODESMATA-LOCALIZED PROTEIN 5 (PDLP5) fused to YN (protein, UniProt Q8GUJ2 26-299)
chain: B2 chain
B8: stomatal cytokinesis-defective 1 (SCD1) fused to YN (protein, UniProt Q8RXA7 1-1187)
chain: B5 chain
B9: GmIFS2-YN, an ER membrane-localized protein from soybean (protein, UniProt Q9SWR5 1-521)
chain: MLLELALGLLVLALFLHLRPTPTAKSKALRHLPNPPSPKPRLPFIGHLHLLKDKLLHYALIDLSKKHGPLFSLYFGSMPTVVASTPELFKLFLQTHEATSFNTRFQTSAIRRLTYDSSVAMVPFGPYWKFVRKLIMNDLLNATTVNKLRPLRTQQIRKFLRVMAQGAEAQKPLDLTEELLKWTNSTISMMMLGEAEEIRDIAREVLKIFGEYSLTDFIWPLKHLKVGKYEKRIDDILNKFDPVVERVIKKRREIVRRRKNGEVVEGEVSGVFLDTLLEFAEDETMEIKITKDHIKGLVVDFFSAGTDSTAVATEWALAELINNPKVLEKAREEVYSVVGKDRLVDEVDTQNLPYIRAIVKETFRMHPPLPVVKRKCTEECEINGYVIPEGALILFNVWQVGRDPKYWDRPSEFRPERFLETGAEGEAGPLDLRGQHFQLLPFGSGRRMCPGVNLATSGMATLLASLIQCFDLQVLGPQGQILKGGDAKVSMEERAGLTVPRAHSLVCVPLARIGVASKLLS

Amino acid sequences for entries named in this document (tags omitted).
UniProt Q9SJM0: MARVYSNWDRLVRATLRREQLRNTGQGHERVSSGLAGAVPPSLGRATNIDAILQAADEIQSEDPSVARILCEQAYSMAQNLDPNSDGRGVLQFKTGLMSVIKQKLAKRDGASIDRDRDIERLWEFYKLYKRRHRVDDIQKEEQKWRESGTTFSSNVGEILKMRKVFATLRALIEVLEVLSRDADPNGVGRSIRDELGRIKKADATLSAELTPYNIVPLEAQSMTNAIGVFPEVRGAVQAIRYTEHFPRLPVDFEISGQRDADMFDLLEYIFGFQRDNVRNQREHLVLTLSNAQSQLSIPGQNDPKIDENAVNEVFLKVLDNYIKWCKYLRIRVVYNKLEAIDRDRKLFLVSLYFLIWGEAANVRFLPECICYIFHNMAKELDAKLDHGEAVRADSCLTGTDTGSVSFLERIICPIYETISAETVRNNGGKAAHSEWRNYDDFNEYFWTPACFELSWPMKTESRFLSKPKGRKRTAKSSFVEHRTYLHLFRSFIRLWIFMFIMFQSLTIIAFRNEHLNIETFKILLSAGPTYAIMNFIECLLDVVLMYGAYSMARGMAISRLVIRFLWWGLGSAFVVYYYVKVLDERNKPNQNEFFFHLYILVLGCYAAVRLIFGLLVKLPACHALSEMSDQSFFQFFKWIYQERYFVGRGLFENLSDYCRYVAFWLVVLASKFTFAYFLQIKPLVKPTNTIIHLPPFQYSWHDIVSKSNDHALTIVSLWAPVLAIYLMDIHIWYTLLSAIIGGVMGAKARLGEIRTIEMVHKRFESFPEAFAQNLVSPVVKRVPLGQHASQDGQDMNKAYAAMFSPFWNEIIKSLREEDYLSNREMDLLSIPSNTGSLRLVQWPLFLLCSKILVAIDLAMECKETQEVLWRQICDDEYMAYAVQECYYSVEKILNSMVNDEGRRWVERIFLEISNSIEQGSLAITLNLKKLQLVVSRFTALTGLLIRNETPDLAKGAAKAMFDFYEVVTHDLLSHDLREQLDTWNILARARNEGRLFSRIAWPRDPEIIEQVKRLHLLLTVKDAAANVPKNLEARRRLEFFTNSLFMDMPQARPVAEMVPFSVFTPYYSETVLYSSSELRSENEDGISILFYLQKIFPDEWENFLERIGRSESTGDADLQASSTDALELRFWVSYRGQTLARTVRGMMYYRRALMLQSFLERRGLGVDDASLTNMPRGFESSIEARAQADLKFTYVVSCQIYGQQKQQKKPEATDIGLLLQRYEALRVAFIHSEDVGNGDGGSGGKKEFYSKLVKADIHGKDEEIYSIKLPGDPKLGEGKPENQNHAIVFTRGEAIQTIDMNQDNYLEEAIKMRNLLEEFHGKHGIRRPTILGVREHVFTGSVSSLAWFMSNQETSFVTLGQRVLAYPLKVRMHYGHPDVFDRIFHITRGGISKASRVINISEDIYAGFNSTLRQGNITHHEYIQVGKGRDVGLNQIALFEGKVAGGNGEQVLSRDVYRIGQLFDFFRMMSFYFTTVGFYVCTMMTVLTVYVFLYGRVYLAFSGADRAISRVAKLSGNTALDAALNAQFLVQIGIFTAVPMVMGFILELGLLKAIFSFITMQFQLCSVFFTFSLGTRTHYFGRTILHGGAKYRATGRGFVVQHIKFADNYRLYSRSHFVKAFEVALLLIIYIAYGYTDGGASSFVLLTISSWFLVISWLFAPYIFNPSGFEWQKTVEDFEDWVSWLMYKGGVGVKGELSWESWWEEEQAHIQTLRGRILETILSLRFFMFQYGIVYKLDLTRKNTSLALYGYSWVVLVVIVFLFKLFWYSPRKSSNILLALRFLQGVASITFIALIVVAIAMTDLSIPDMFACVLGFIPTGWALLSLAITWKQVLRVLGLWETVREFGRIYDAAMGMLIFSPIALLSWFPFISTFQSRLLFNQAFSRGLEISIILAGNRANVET
UniProt P49040: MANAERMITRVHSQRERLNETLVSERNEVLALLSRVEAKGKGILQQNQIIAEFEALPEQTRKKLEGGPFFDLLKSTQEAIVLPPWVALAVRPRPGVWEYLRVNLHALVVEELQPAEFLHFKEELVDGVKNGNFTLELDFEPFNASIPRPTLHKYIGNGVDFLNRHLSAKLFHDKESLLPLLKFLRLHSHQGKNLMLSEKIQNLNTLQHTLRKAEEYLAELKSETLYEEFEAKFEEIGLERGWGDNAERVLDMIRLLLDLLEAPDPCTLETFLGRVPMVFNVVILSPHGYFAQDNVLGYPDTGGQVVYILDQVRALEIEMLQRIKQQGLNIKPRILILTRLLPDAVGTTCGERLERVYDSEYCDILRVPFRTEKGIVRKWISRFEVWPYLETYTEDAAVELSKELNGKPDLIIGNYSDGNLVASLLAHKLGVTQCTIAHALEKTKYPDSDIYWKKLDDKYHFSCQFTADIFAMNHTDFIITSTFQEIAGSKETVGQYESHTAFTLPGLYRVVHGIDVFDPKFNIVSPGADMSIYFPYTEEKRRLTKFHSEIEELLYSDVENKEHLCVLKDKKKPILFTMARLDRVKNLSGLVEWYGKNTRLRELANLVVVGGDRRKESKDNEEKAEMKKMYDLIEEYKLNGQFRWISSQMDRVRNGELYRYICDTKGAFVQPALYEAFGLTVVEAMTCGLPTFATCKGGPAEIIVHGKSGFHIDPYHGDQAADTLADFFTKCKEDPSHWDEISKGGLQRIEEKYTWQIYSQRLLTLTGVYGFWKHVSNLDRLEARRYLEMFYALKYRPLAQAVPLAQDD
UniProt Q9SFU6: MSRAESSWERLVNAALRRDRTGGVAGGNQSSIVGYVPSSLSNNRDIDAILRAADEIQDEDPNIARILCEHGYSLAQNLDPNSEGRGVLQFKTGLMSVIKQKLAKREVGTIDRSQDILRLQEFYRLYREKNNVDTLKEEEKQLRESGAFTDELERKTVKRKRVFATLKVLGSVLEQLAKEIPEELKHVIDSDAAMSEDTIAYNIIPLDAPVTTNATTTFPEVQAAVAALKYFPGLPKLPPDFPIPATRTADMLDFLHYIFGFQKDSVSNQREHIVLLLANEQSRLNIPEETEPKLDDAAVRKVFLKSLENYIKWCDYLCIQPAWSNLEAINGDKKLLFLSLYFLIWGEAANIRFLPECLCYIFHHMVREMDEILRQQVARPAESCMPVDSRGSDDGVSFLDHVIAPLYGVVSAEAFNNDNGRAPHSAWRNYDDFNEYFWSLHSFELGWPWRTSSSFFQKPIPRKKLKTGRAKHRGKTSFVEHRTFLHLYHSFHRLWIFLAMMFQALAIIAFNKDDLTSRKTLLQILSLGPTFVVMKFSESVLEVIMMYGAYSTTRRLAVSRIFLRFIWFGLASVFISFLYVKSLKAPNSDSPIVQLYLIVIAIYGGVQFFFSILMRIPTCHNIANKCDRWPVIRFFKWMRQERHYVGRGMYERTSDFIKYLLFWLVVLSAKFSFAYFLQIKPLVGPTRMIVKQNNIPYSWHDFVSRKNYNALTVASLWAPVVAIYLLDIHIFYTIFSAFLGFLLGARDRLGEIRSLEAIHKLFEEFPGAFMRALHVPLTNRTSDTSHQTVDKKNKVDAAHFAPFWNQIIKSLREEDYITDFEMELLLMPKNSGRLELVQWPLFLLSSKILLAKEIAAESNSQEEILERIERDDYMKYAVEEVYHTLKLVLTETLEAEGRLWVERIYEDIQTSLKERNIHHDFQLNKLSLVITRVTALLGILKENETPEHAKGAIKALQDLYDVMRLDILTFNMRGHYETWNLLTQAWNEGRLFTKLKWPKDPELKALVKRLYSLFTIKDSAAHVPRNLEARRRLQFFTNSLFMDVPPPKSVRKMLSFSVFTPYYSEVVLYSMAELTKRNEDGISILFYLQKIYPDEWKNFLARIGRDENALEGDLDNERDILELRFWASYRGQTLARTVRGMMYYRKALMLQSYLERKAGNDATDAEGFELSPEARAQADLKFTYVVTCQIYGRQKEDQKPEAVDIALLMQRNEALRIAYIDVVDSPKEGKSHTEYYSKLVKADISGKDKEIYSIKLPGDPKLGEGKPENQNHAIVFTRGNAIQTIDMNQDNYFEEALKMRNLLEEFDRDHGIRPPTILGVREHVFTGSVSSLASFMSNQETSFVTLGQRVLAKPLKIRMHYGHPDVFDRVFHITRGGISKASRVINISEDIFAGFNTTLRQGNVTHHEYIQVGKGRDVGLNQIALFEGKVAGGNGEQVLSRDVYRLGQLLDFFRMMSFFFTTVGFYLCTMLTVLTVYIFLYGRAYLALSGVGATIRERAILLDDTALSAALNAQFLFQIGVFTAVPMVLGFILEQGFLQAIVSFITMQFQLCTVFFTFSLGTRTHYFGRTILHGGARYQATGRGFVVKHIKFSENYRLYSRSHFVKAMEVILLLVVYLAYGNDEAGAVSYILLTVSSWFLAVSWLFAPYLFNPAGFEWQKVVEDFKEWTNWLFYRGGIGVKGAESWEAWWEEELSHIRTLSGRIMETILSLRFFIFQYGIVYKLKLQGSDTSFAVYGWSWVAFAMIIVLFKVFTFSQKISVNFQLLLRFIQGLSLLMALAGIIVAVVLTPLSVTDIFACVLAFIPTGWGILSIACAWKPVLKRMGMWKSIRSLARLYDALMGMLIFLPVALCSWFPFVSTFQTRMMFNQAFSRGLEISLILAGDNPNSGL

Each molecule was assayed against GLUCAN SYNTHASE-LIKE 8 (GSL8) fused to YFP (Arabidopsis thaliana) (UniProt Q9SJM0) (assay: FRET or BRET; FRET by acceptor photobleaching in infiltrated N. bentamiana leaves, 3 dpi; GSL8-YFP (acceptor) with candidate interactor fused to CFP (donor)).

Molecule | binding
SUCROSE SYNTHASE 1 (SUS1) fused to CFP (from UniProt P49040 1-808) (enzyme) | binds
B1 | binds
B2 | binds

These molecules were tested against GLUCAN SYNTHASE-LIKE 8 (GSL8), bait of the membrane yeast two hybrid system (MYTH) (Arabidopsis thaliana) (UniProt Q9SJM0) (assay: two-hybrid; membrane yeast two hybrid system (MYTH); bait GSL8 in pAMBV, preys in pPR3-C; colony growth on SD-Leu-Trp (TSM) against SD-Leu-Trp-Ade-His (ISM)).

Molecule | binding
GLUCAN SYNTHASE-LIKE 10 (GSL10), prey of the MYTH (from UniProt Q9SFU6 1-1890) | binds
SUCROSE SYNTHASE 1 (SUS1), prey of the MYTH (from UniProt P49040 1-808) (enzyme) | binds weakly
B3 | binds
B4 | binds
B5 | binds weakly

Each molecule was assayed against GLUCAN SYNTHASE-LIKE 8 (GSL8) fused to YC (Arabidopsis thaliana) (UniProt Q9SJM0) (assay: split reporter; BiFC in infiltrated four-week-old N. bentamiana leaves; GSL8-YC with candidate interactors fused to YN; confocal imaging 3 days post infiltration).

Molecule | binding
SUCROSE SYNTHASE 1 (SUS1) fused to YN (from UniProt P49040 1-808) (enzyme) | binds
B6 | binds
B7 | binds
B8 | binds
B9 | no binding

From paper PMC6249969
